First the molecules themselves.
B1: GCACACU (DNA:RNA)
RNA: GGGAGACCGGAAUUCAGAUUGUCCGCACACUUUAAAUCCCGUCGUAGCCACCA
DNA 1: CAATCTGAATTCCGGTCTCCC
DNA 2: TGGTGGCTACGACGGGATT
B2: CGCCACC (DNA:RNA)
RNA: B1 RNA with G25C, C26G, A27C, U31C
DNA 1: CAATCTGAATTCCGGTCTCCC
DNA 2: TGGTGGCTACGACGGGATT
B3: UAUUCAG (DNA:RNA)
RNA: GGGAGACCGGAAUUCAGAUUGUCCUAUUCAGUUAAAUCCCGUCGUAGCCACCA
DNA 1: CAATCTGAATTCCGGTCTCCC
DNA 2: TGGTGGCTACGACGGGATT
B4: CAGACCA (DNA:RNA)
RNA: B3 RNA with U25C, U27G, U28A, A30C, G31A
DNA 1: CAATCTGAATTCCGGTCTCCC
DNA 2: TGGTGGCTACGACGGGATT
B5: UAGUGGU (DNA:RNA)
RNA: B3 RNA with U27G, C29G, A30G, G31U
DNA 1: CAATCTGAATTCCGGTCTCCC
DNA 2: TGGTGGCTACGACGGGATT
B6: CGUGCGC (DNA:RNA)
RNA: B3 RNA with U25C, A26G, U28G, A30G, G31C
DNA 1: CAATCTGAATTCCGGTCTCCC
DNA 2: TGGTGGCTACGACGGGATT
B7: UUUCCCU (DNA:RNA)
RNA: B1 RNA with G25U, C26U, A27U, A29C
DNA 1: CAATCTGAATTCCGGTCTCCC
DNA 2: TGGTGGCTACGACGGGATT
B8: GACGCGA (DNA:RNA)
RNA: B3 RNA with U25G, U27C, U28G, A30G, G31A
DNA 1: CAATCTGAATTCCGGTCTCCC
DNA 2: TGGTGGCTACGACGGGATT
B9: CCGCCAA (DNA:RNA)
RNA: B1 RNA with G25C, A27G, A29C, C30A, U31A
DNA 1: CAATCTGAATTCCGGTCTCCC
DNA 2: TGGTGGCTACGACGGGATT
B10: UAUGUCA (DNA:RNA)
RNA: B3 RNA with U28G, C29U, A30C, G31A
DNA 1: CAATCTGAATTCCGGTCTCCC
DNA 2: TGGTGGCTACGACGGGATT
B11: AUGCCGC (DNA:RNA)
RNA: B1 RNA with G25A, C26U, A27G, A29C, C30G, U31C
DNA 1: CAATCTGAATTCCGGTCTCCC
DNA 2: TGGTGGCTACGACGGGATT
B12: CGCUUCA (DNA:RNA)
RNA: B1 RNA with G25C, C26G, A27C, C28U, A29U, U31A
DNA 1: CAATCTGAATTCCGGTCTCCC
DNA 2: TGGTGGCTACGACGGGATT
B13: CUCACAA (DNA:RNA)
RNA: B3 RNA with U25C, A26U, U27C, U28A, G31A
DNA 1: CAATCTGAATTCCGGTCTCCC
DNA 2: TGGTGGCTACGACGGGATT
B14: GCAAACC (DNA:RNA)
RNA: B1 RNA with C28A, U31C
DNA 1: CAATCTGAATTCCGGTCTCCC
DNA 2: TGGTGGCTACGACGGGATT
B15: ACGGCGC (DNA:RNA)
RNA: B1 RNA with G25A, A27G, C28G, A29C, C30G, U31C
DNA 1: CAATCTGAATTCCGGTCTCCC
DNA 2: TGGTGGCTACGACGGGATT
B16: UGUAAUC (DNA:RNA)
RNA: B3 RNA with A26G, U28A, C29A, A30U, G31C
DNA 1: CAATCTGAATTCCGGTCTCCC
DNA 2: TGGTGGCTACGACGGGATT
B17: AGACGAA (DNA:RNA)
RNA: B1 RNA with G25A, C26G, A29G, C30A, U31A
DNA 1: CAATCTGAATTCCGGTCTCCC
DNA 2: TGGTGGCTACGACGGGATT
B18: AGCAAAG (DNA:RNA)
RNA: B3 RNA with U25A, A26G, U27C, U28A, C29A
DNA 1: CAATCTGAATTCCGGTCTCCC
DNA 2: TGGTGGCTACGACGGGATT
B19: CCGGACA (DNA:RNA)
RNA: B1 RNA with G25C, A27G, C28G, U31A
DNA 1: CAATCTGAATTCCGGTCTCCC
DNA 2: TGGTGGCTACGACGGGATT
B20: UAUAAGU (DNA:RNA)
RNA: B3 RNA with U28A, C29A, A30G, G31U
DNA 1: CAATCTGAATTCCGGTCTCCC
DNA 2: TGGTGGCTACGACGGGATT

Changes are numbered by the printed parent chain; changes in the protein carry UniProt numbers. Some of the results follow.

In the assay the target is T1, RBFOX1 RRM RbFoxmut (Fox-RRM*) (Homo sapiens, UniProt Q9NWB1 109-208, R118D;E147R;N151S;E152T).
T1 sequence: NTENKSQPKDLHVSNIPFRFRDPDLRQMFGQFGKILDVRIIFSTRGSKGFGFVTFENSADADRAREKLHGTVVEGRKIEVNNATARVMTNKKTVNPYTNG
Nature of the assay: EMSA; HiTS-Eq, 1 nM pool, 10 min; buffer printed only for the single-RNA assays: 10 mM Tris pH 7.5, 150 mM NaCl, 3.4 mM EDTA, 0.001% NP-40, 30 C. Particulars: tags: His6 N-terminal (pET28a); label: 5' 32P. Summed up: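 A pool of RNA with 7 randomized nucleotides, 5′-radiolabelled and with DNA-annealed flanks, was equilibrated at 1 nM for 10 min in 50 µL with purified RbFox RRM, wild type or mutant, across increasing protein concentrations. Free RNA was separated by 8% native PAGE, excised, reverse-transcribed, barcoded by PCR and sequenced. Relative association constants were obtained from read-count changes of each RNA species versus the control reaction and normalised to the cognate motif.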
In general terms: Mobility shift assays separate free from complexed probe on a gel.
Regarding B1, the binding signal was 0.0704 KA relative to UGCAUGU.

As for B2, the binding signal is 0.0697 KA relative to UGCAUGU.

Turning to B3, the binding signal was 0.106 KA relative to UGCAUGU.

Regarding B4, the binding signal was 0.0712 KA relative to UGCAUGU.

For the molecule B5, the binding signal was 0.158 KA relative to UGCAUGU.

For the molecule B6, the binding signal was 0.108 KA relative to UGCAUGU.

Regarding B7, the binding signal was 0.0509 KA relative to UGCAUGU.

As to B8, the binding signal was 0.0881 KA relative to UGCAUGU.

Turning to B9, the binding signal was 0.0996 KA relative to UGCAUGU.

For B10, the binding signal was 0.0977 KA relative to UGCAUGU.

Take B11: the binding signal was 0.11 KA relative to UGCAUGU.

As to B12, the binding signal is 0.119 KA relative to UGCAUGU.

For B13, the binding signal is 0.063 KA relative to UGCAUGU.

As for B14, the binding signal is 0.0564 KA relative to UGCAUGU.

Consider B15, for which the binding signal is 0.119 KA relative to UGCAUGU.

For the molecule B16, the binding signal is 0.157 KA relative to UGCAUGU.

With B17, the binding signal is 0.0675 KA relative to UGCAUGU.

As to B18, the binding signal was 0.0925 KA relative to UGCAUGU.

Regarding B19, the binding signal was 0.0596 KA relative to UGCAUGU.

As for B20, the binding signal is 0.0883 KA relative to UGCAUGU.

Values taken from article PMC9911399, “Two distinct binding modes provide the RNA-binding protein RbFox with extraordinary sequence specificity”.
